Here are results for 15 sequences from the supplement of paper PMC7826260.

This is one part of the list. One pool of 16,384 single-stranded DNAs met each Rep nickase domain in vitro for 1 h at 37 °C with 3 µM enzyme; only the middle of the 90-letter strands is printed. Uncut reads are compared with the no-enzyme pool on a log2 scale; uncut sequences lie near 0, cut ones below; no hit call is given. The scaling is to total reads, so uncut sequences can rise above 0 when many others are cut.

Holding throughout (assay): uncleaved DNA left, log2 of reads against the no-enzyme library (log2 ratio); higher = less cleavage (more negative = more Rep cleavage of the k-mer); sequences stand for … in CTCGTCCG…ACCGGAGA
In assay [1] the test system is T1, Rep nickase domain of Muscovy duck circovirus.
T1 sequence (Rep 1-111, printed without the tag): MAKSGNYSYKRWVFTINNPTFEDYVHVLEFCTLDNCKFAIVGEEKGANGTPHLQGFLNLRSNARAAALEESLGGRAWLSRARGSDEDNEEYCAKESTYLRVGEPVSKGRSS
On the procedure: (§1)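 A pool of 90-nt single-stranded DNAs with seven random bases just before the constant AC of the nick site (name = the seven bases) was cut by 3 µM recombinant His6-SUMO-tagged Rep nickase domain (300 nM DNA, 50 mM HEPES pH 8.0, 50 mM NaCl, 1 mM MnCl2, 1 h, 37 °C, three replicates). Uncut DNA was amplified and sequenced.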

Assay [2] concerns T2, Rep nickase domain of banana bunchy top virus.
T2 sequence (Rep 1-94, printed without the tag): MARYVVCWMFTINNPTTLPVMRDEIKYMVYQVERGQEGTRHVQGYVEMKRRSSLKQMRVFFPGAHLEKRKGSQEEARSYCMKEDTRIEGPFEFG
The procedure: as §1
In assay [3] the test system is T3, Rep nickase domain of cabbage leaf curl virus.
T3 sequence (Rep 1-116, printed without the tag): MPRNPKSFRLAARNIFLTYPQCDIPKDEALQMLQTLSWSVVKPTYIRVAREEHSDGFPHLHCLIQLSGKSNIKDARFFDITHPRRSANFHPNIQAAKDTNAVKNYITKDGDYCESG
On the procedure: as §1
Assay [4] concerns T4, Rep nickase domain of chickpea chlorotic dwarf virus.
T4 sequence (Rep 1-124, printed without the tag): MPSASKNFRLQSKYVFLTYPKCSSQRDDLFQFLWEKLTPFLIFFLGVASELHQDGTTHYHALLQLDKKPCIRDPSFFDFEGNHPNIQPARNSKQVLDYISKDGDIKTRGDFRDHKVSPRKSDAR
On the procedure: as §1
Assay [5] has as its system T5, Rep nickase domain of faba bean necrotic yellows virus.
T5 sequence (Rep 1-98, printed without the tag): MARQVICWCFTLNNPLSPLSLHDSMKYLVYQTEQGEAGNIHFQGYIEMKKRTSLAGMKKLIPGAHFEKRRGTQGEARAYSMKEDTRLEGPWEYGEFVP
The procedure: as §1
For assay [6], the system named is T6, Rep nickase domain of maize striate mosaic virus.
T6 sequence (Rep 1-117, printed without the tag): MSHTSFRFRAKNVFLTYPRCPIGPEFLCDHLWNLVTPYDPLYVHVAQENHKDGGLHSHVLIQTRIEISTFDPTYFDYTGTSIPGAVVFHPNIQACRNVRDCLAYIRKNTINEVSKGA
On the procedure: as §1
Assay [7] has as its system T7, Rep nickase domain of porcine circovirus 2.
T7 sequence (Rep 2-116, printed without the tag): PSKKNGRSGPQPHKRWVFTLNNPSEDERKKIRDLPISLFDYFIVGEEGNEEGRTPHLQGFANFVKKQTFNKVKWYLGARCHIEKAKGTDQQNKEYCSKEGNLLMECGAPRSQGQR
On the procedure:
as §1

For assay [8], the system named is T8, Rep nickase domain of tomato golden mosaic virus.
T8 sequence (Rep 1-124, printed without the tag): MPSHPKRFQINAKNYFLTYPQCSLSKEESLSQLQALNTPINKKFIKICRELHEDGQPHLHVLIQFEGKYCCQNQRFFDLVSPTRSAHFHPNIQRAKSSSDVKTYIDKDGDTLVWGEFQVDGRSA
On the procedure:
as §1

In assay [9] the test system is T9, Rep nickase domain of tomato yellow leaf curl virus.
T9 sequence (Rep 1-136, printed without the tag): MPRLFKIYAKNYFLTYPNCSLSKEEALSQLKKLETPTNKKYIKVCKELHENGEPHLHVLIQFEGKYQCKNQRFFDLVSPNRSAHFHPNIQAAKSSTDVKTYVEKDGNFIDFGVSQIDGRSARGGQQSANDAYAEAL
On the procedure:
as §1

The test system of assay [10] is T10, Rep nickase domain of wheat dwarf virus.
T10 sequence (Rep 1-137, printed without the tag): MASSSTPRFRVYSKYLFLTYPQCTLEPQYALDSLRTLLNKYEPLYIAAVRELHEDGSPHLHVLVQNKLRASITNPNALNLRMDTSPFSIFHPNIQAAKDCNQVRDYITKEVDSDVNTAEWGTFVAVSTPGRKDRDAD
The procedure:
as §1

With CGATAGC, the “uncleaved DNA left (log2)” value in assay [1] is 0.0294; in [2] it was 0.0191; in assay [3] it was 0.104; in assay [4] it was 0.579; in assay [5], -0.0907; in assay [6], 0.111. Also, the “uncleaved DNA left (log2)” value is 0.096 in assay [7], -0.0993 in assay [8], 0.0583 in assay [9] and 0.0607 in assay [10].
As for GCCAGAA, the “uncleaved DNA left (log2)” value is 0.0253 in [1]; 0.037 in assay [2]; 0.28 in assay [3]; 0.617 in assay [4]; 0.00485 in assay [5]; 0.0282 in assay [6]. Moreover, the “uncleaved DNA left (log2)” value in [7] was determined as 0.0764; in [8], 0.149; in [9] it was 0.0259; in assay [10] it was 0.0898.
On to GTGCTTT, for which the “uncleaved DNA left (log2)” value in assay [1] turned out to be 0.0175; in [2], 0.0335; in assay [3], 0.372; in [4] it was 0.631; in [5], 0.0272; in [6], 1.52. Besides, the “uncleaved DNA left (log2)” value in [7] was found to be 0.145; in assay [8] it was 0.00643; in assay [9], 0.102; in assay [10], 0.054.
Regarding ATTACGA, the “uncleaved DNA left (log2)” value is -0.0195 in assay [1]; -0.0572 in assay [2]; -0.198 in [3]; -1.1 in [4]; -0.0673 in assay [5]; -1.06 in [6]. For the same sequence, the “uncleaved DNA left (log2)” value was 0.029 in assay [7], -0.0766 in assay [8], -0.00118 in assay [9] and -0.116 in [10].
Regarding TTGTCTG, the “uncleaved DNA left (log2)” value in [1] was -0.0026; in assay [2], -0.00878; in [3] it was -0.124; in [4], 0.0925; in [5] it was 0.0286; in [6], -0.21. The “uncleaved DNA left (log2)” value is 0.122 in assay [7], -0.022 in [8], -0.134 in assay [9] and -0.121 in assay [10].
As for TAGGTGA, the “uncleaved DNA left (log2)” value in assay [1] came to 0.000351; in assay [2], 0.0109; in [3], 0.136; in assay [4], 0.199; in assay [5], 0.0351; in assay [6], 0.0986. The “uncleaved DNA left (log2)” value was 0.0214 in [7], 0.139 in assay [8], -0.00872 in [9] and -0.0601 in assay [10].
For CGATACG, the “uncleaved DNA left (log2)” value is -0.0975 in assay [1]; 0.0616 in assay [2]; -0.697 in assay [3]; -0.531 in [4]; -0.0361 in assay [5]; -1.04 in assay [6]. The “uncleaved DNA left (log2)” value in assay [7] was -0.0185; in [8], -0.199; in [9], -0.075; in assay [10], -0.0139.
Take GCGCGCG: the “uncleaved DNA left (log2)” value in assay [1] is 0.0494; in [2], -0.0375; in assay [3] it was -0.588; in assay [4], 0.429; in assay [5], 0.00266; in assay [6], -0.472. Moreover, the “uncleaved DNA left (log2)” value was 0.18 in assay [7], -0.0972 in [8], 0.0131 in assay [9] and -0.067 in assay [10].
For the sequence GAGACGG, the “uncleaved DNA left (log2)” value in assay [1] is 0.0247; in [2] it was 0.119; in assay [3], 0.272; in assay [4] it was 1.19; in assay [5], -0.0115; in assay [6], 1.9. In addition, the “uncleaved DNA left (log2)” value was 0.147 in assay [7], 0.0958 in [8], 0.0636 in assay [9] and 0.106 in assay [10].
TGGGCGC: the “uncleaved DNA left (log2)” value in assay [1] amounted to 0.121; in assay [2], 0.12; in assay [3], 0.289; in assay [4], 0.422; in assay [5], 0.177; in [6], 0.327. The “uncleaved DNA left (log2)” value worked out at 0.289 in assay [7], 0.0759 in assay [8], 0.0808 in assay [9] and 0.0417 in assay [10].
Regarding GTCCCGT, the “uncleaved DNA left (log2)” value in assay [1] was -0.0313; in [2], 0.0592; in assay [3], 0.314; in assay [4], 0.666; in assay [5] it was -0.083; in assay [6] it was 1.5. Besides, the “uncleaved DNA left (log2)” value in [7] was 0.0207; in assay [8] it was 0.0455; in assay [9], 0.102; in assay [10] it was 0.00375.
Consider TGGGGAT, for which the “uncleaved DNA left (log2)” value was -0.134 in assay [1]; -0.025 in assay [2]; 0.268 in assay [3]; 1.59 in assay [4]; -0.0713 in assay [5]; 1.84 in assay [6]. Besides, the “uncleaved DNA left (log2)” value in assay [7] is 0.0723; in assay [8], 0.0133; in [9] it was -0.158; in assay [10], -0.0358.
As to GGCATAA, the “uncleaved DNA left (log2)” value in assay [1] is -0.0245; in [2] it was 0.0313; in assay [3] it was 0.525; in [4] it was 1.45; in assay [5] it was -0.0261; in assay [6], 1.8. The “uncleaved DNA left (log2)” value in assay [7] was 0.0975; in assay [8], -0.0416; in assay [9], -0.0234; in assay [10], 0.185.
Turning to CAGCGGA, the “uncleaved DNA left (log2)” value was 0.0526 in assay [1]; -0.00626 in assay [2]; -0.329 in assay [3]; -0.329 in [4]; -0.0393 in assay [5]; -0.72 in [6]. Further, the “uncleaved DNA left (log2)” value in assay [7] was -0.13; in assay [8], 0.107; in assay [9], -0.0377; in assay [10], -0.127.
Regarding CGGAGTG, the “uncleaved DNA left (log2)” value in [1] was 0.0476; in assay [2] it was -0.0994; in assay [3], -0.2; in assay [4], 0.145; in assay [5] it was -0.0776; in assay [6], 0.0779. Besides, the “uncleaved DNA left (log2)” value is 0.105 in assay [7], -0.0576 in assay [8], 0.109 in [9] and -0.114 in assay [10].
